Out of some 310,000 compounds screened, about 2,200 (0.71%) showed an effect of 50% or more. Effects have a minus sign here. The list shows a part of the results.
biological target: human ether-à-go-go-related gene (hERG) potassium channel (human, UniProt Q12809); test: primary screen, population patch clamp on CHO cells stably expressing hERG
Sequence (Q12809 whole entry, looked up): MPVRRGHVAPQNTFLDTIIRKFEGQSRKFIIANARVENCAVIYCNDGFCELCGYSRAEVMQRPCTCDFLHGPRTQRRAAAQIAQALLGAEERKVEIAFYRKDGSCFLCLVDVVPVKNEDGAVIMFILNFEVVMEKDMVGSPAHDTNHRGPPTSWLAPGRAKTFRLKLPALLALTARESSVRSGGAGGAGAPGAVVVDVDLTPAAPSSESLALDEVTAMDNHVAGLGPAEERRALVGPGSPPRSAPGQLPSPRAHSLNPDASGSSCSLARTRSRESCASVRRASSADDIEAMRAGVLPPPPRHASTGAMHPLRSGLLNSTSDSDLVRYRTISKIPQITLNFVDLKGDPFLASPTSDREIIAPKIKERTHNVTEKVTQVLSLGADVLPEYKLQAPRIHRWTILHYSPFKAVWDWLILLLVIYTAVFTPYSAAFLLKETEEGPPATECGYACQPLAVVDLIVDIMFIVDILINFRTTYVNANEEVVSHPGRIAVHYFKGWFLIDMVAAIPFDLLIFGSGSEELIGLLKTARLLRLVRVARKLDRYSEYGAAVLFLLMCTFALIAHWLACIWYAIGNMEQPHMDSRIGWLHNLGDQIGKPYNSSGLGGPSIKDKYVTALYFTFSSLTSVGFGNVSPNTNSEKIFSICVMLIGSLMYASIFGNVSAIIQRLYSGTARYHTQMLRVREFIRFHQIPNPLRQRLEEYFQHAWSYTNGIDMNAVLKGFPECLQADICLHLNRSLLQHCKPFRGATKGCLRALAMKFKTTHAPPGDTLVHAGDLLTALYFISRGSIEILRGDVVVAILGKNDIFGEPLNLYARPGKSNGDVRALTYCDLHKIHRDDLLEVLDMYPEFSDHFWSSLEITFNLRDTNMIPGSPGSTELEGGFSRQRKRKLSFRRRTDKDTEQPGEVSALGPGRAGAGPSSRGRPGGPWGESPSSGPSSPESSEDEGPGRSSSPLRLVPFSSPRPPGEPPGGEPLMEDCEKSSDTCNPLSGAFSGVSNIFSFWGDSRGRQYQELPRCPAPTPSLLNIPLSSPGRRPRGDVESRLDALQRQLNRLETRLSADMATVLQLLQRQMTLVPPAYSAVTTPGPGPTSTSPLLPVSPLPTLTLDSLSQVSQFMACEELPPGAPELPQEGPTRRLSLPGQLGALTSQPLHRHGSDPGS

Point of comparison: `CCCC(=O)N1CCCC(C(=O)c2ccc(OC)c(OC)c2)C1` (centres unmarked), “hERG current change (%, negative = inhibition) at 1uM” value 11.9%. Against it:
- CCCN1C2CCCC1CC(NC(=O)c1ccccc1OCC)C2 (centres unmarked) — lower, -9.33%
- CCN1CCN(Cc2ccc(C)cc2)CC1 — lower, -2.75%
- O=C(CNS(=O)(=O)c1ccccc1)OCC(=O)c1ccc(Br)cc1 — higher, 17.4%
- COCCn1c(SCC#N)nnc1-c1ccccc1O — lower, -0.569%
- CCOC(=O)c1cnc2ccccc2c1Nc1ccc(C(=O)O)cc1.Cl — higher, 13.4%
- Cc1nnc(SCC(=O)N2c3ccccc3C(C)(c3ccccc3)CC2(C)C)s1 (centres unmarked) — lower, -7.23%
- O=C(Nc1ccccc1N1CCOCC1)c1cccc(F)c1 — lower, 5.51%
- Cc1ccc(OCc2ccc(C(=O)NCC3CCCO3)cc2)cc1 (centres unmarked) — higher, 24.9%
- COC(=O)Cn1ncc2c(C)n(Cc3ccccc3)c(C)c2c1=O — higher, 14.5%
- C=C1CCN(c2ccc(C(=O)NCc3ccccc3)cc2[N+](=O)[O-])CC1 — lower, 9.22%
- Cc1ccc(S(=O)(=O)c2nc(-c3ccccc3Cl)oc2N(C)C)cc1 — lower, 6.81%
- Cn1cc(C(=O)c2ccc(Cl)cc2Cl)cc1C(=O)N/N=C(\N)COc1cccc(C(F)(F)F)c1 — higher, 17%
- Cc1cccc(C)c1N(CC(=O)N1CCOCC1)S(C)(=O)=O — higher, 14.2%
- O=C(NC1CCCCC1)C(c1cccnc1)N(C(=O)c1ccc(Cl)nc1)C1CCCCC1 (centres unmarked) — lower, 8.54%
- Cc1cc(C)c(O)c(-c2n[nH]c3c2C(c2cccc(O)c2)N(Cc2ccco2)C3=O)c1 (centres unmarked) — lower, 10.2%
- CN1OC2C(=O)N(c3ccccc3)C(=O)C2C1c1ccc(F)cc1 (centres unmarked) — lower, -2.43%
- O=C(NCc1ccccc1Cl)c1ccc(CS(=O)(=O)c2ccccc2)o1 — lower, 9.05%
- COCCNC(=O)Nc1ccc2c(c1)N(C)C(=O)CS2 — higher, 16.1%
- CS(=O)(=O)N1CCN(c2ccc(NC(=S)NC(=O)c3ccc4c(c3)OCO4)cc2)CC1 — higher, 17.7%
- Cc1cccc(N2CCN(C(=O)CCNS(=O)(=O)c3ccc4c(c3)oc(=O)n4C)CC2C)c1 (centres unmarked) — lower, 8.95%
- CC(NC(=O)CCN1C(=O)c2ccccc2C1=O)c1ccc2c(c1)CCCC2 (centres unmarked) — higher, 16.1%
- Cc1c(N=Cc2c(O)n(C)c(=O)[nH]c2=O)c(=O)n(-c2ccccc2)n1C — lower, 11.7%
- O=c1[nH]c(=O)n(Cc2ccc(Oc3ccccc3)cc2)cc1Br — higher, 12.5%
- O=C1ON=C(c2ccc(Cl)cc2)/C1=C/c1ccc(O)cc1 — higher, 19.3%
- O=C(CN1CCCCC1)Nc1cccc(Oc2ccccc2)c1 — lower, -4.49%
- CC(C)[C@H](Nc1ccc(S(=O)(=O)N2CCOCC2)cc1[N+](=O)[O-])C(=O)OCC(N)=O — lower, 7.12%
- Cc1cc(-c2ccc([N+](=O)[O-])cc2)nc2ccccc12.Cl — higher, 13.9%
- c1ccc2c(Cn3nnc4ccccc43)cccc2c1 — higher, 13.4%
- COC(=O)C1=C(C)N(Cc2ccccc2)C(=NCCCCO)N[C@H]1CCc1ccccc1 — lower, -2.94%
- Cc1onc(-c2ccccc2)c1C(=O)Nc1ccc(N2CCOCC2)cc1 — higher, 12.5%
- CC/C(=N/NC(=O)c1ccc(Br)o1)c1ccc(Cl)cc1 — higher, 13.6%
- COc1ccc(N2CC(C(=O)NC3CCCCC3)CC2=O)cc1 (centres unmarked) — lower, 9.1%
- CCC(CO)NC1=CC(=O)CCC1 (centres unmarked) — lower, 8.31%
- Cc1cccc(C(=O)NC2CCN(CC(=O)NCc3cccs3)CC2)c1 — lower, 2.82%
- COc1ccc(CNC(=O)CN(Cc2ccco2)C(=O)CCC(=O)Nc2ccccn2)cc1 — lower, -11.5%
- CCn1cc(C(=O)O)c(=O)c2cc(F)c(N/N=C/c3ccccc3)cc21 — lower, -4.52%
- O=C(O)C(=O)O.c1ccc(Cc2ccc(OCCCNC3CCCC3)cc2)cc1 — lower, -3.05%
- CC(C)N=C(Nc1ccc(Cl)cc1)c1cccnc1 — lower, 9.22%
- Cc1ccc(OCc2cc(C(=O)NCCn3cccn3)no2)cc1C — higher, 20.8%
- COc1ccc(C(=O)NNC(=O)CSc2nc3c(c(=O)n(C)c(=O)n3C)n2C)cc1 — lower, 6.17%
- O=C(C1CCCCC1)N1CCC(CO)(Cc2ccccc2Cl)CC1 — lower, -3.15%
- O=C(Nc1ccc(S(=O)(=O)N2CCCCCC2)cc1)c1ccco1 — lower, -3.51%
- COc1cc(NC(=O)c2cccc([N+](=O)[O-])c2)ccc1NC(=O)c1ccco1 — lower, 0.199%
